# Experimental data published in PubChem BioAssay AID1347428 (National Center for Advancing Translational Sciences (NCATS), 2020).
# Out of some 91,000 compounds screened, about 290 (0.32%) were called active. The inconclusive results got no clear call from the source; some entries with a clear call stand among them for comparison. Calls come from the whole dose curve; as a rule, active = well fitted inhibition curve with a large enough effect; inconclusive = small, poorly fitted or top-dose-only effect; inactive = no such curve, though single readings can be large or run the other way. Potencies beside an inconclusive call are fits to weak or partial responses and may not hold up.
# Target: Single-stranded DNA cytosine deaminase (Homo sapiens) (UniProt Q9GZX7)
# Test: Primary qHTS assay for inhibitors of Activation Induced Cytidine Deaminase (AID): AID signal; note: nearly all actives have a fitted effect of over 25% in size
# Settings: AID deamination FRET fluorescence, UDG-coupled, 4 h; series mostly up to 115 µM
# Potency is the fitted concentration of half-maximal effect; tags give direction and shape of the fitted curve.
# Chain of UniProt Q9GZX7 (Q9GZX7 whole entry, looked up): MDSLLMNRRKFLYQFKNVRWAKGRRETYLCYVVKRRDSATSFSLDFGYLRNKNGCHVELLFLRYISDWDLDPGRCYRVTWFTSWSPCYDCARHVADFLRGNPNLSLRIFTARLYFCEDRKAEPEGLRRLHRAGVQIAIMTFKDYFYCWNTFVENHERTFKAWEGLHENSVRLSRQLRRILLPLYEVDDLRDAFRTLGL
row,SMILES,Potency
1,CC(C)(C)c1ccc(C(=O)N[C@H]2C[C@@H]3CC[C@H]2C3)cc1,inactive
2,Cc1ccc(S(=O)(=O)c2nc(-c3ccccc3)oc2N2CCCCCC2)cc1,"inconclusive: 56.2 µM [inhibitor, partial curve, poor fit]"
3,Cc1cccc(OCC(=O)N(Cc2cccc(Cl)c2)Cc2ccco2)c1C,"inconclusive: 14.1 µM [inhibitor, full curve]"
4,Cc1nc2cc(NC(C)C(=O)Nc3ccccc3C(F)(F)F)ccc2o1 (stereo not drawn),inactive
5,CCc1cccc(NC(=O)c2c(C)oc3ncnc(N4CCCCC4)c23)c1,inactive
6,CC(=O)Nc1ccc(NC(=O)C(C)OC(=O)c2cccc3c(=O)c(C)c(-c4ccccc4)oc23)cc1 (stereo not drawn),inactive
7,CC(=O)c1cccc(Nc2c3c(nc4nc(-c5cccs5)nn24)CCCC3)c1,"inconclusive: 20 µM [inhibitor, full curve, poor fit]"
8,CC(C)(C)c1ccc(C(=O)COC(=O)c2ccc3ccccc3n2)cc1,inactive
9,CC(=O)Nc1cccc(-c2nnc(SCC(=O)c3cc([N+](=O)[O-])ccc3Br)o2)c1,"inconclusive: 25.1 µM [inhibitor, partial curve]"
10,Cc1cccc2c1-c1sc(C(=O)NCCCN3CCN(c4cccc(Cl)c4)CC3)cc1CO2,"inconclusive: 25.1 µM [inhibitor, single point]"
11,COc1cccc(C(=O)Nc2sc3c(c2C(N)=O)CCCC3)c1OC(F)F,inactive
12,COc1ccc(Nc2ncc(C(=O)Nc3cc(C)ccc3OC)c3ccccc23)cc1,"inconclusive: 15.8 µM [inhibitor, full curve, poor fit]"
13,CCCCC(=O)Nc1cc(C(=O)OCc2cc(=O)n3oc(C)cc3n2)ccc1OC,inactive
14,Cc1ccc(C)c(NC(=O)Cn2c(=O)n(Cc3ccco3)c(=O)c3ccc(C(=O)NC4CCCC4)cc32)c1,"inconclusive: 7.08 µM [inhibitor, full curve, poor fit]"
15,O=C(Cn1c(SCCOc2ccccc2Cl)nc2ccccc21)N1CCCCC1,"inconclusive: 50.1 µM [inhibitor, partial curve, poor fit]"
16,CCCN(C(=O)NCc1noc2ccc(C)cc12)c1ccc(Cl)c(Cl)c1,"inconclusive: 39.8 µM [inhibitor, full curve, poor fit]"
17,COc1ccc(N2CCN(C(=O)c3nn(C)c4c3CSc3ccccc3-4)CC2)cc1,"inconclusive: 44.7 µM [inhibitor, full curve, poor fit]"
18,Cc1ccc(CNC(=O)COC(=O)c2ccc3c(c2)NC(=O)CS3)cc1,inactive
19,COc1ccc(C2=C(N3CCN(c4cc(Cl)ccc4C)CC3)c3ccccc3C2=O)cc1,"inconclusive: 15.8 µM [inhibitor, full curve, poor fit]"
20,C=CCn1c(SCCCCCC)nc2c1c(=O)n(C)c(=O)n2C,"inconclusive: 50.1 µM [inhibitor, partial curve, poor fit]"
21,CN1/C(=C/C(=O)COC(=O)c2cc3c(s2)CCC3)C(C)(C)c2ccccc21,inactive

row,SMILES,Potency
1,Cc1nn(C)c2c1c(-c1ccccc1)cc(=O)n2CC(=O)NC(C)(C)C,"inconclusive: 56.2 µM [inhibitor, partial curve, poor fit]"
2,CC(=O)NCc1ccc(-c2csc(-c3ccc(C(C)C)cc3)n2)o1,inactive
3,COc1cc(C(=O)NCCSc2c(-c3ccccc3)[nH]c3ccccc23)cc(OC)c1OC,"inconclusive: 39.8 µM [inhibitor, single point]"
4,COc1cccc(C(=O)N(Cc2cccc(Cl)c2)Cc2ccco2)c1,"inconclusive: 31.6 µM [inhibitor, partial curve, poor fit]"
5,O=C(CN1CCCc2c(F)cc(F)cc21)Nc1cccc2nsnc12,"inconclusive: 100 µM [inhibitor, single point]"
6,COC(=O)c1c(NC(=O)CCCOc2ccccc2)sc2c1CCC(C)C2 (stereo not drawn),"inconclusive: 10 µM [inhibitor, full curve, poor fit]"
7,Cn1c(=O)c2c(nc(Cl)n2Cc2ccc(C#N)cc2)n(C)c1=O,inactive
8,CCc1sc(C(=O)N2CC=C(c3ccccc3)CC2)cc1C,"inconclusive: 56.2 µM [inhibitor, partial curve, poor fit]"
9,CCOc1ccc(NC(=O)NCCCN2CCN(c3ccc(OC)cc3)CC2)cc1,"inconclusive: 89.1 µM [inhibitor, single point]"
10,CC(C)(C)c1ccc(S(=O)(=O)c2cnc(SCC(=O)Nc3ccc(F)c(Cl)c3)[nH]c2=O)cc1,"inconclusive: 79.4 µM [inhibitor, partial curve, poor fit]"
11,Cc1ccc(CN(Cc2ccco2)C(=O)COc2ccc(Cl)cc2Cl)cc1,"inconclusive: 28.2 µM [inhibitor, partial curve, poor fit]"
12,O=C(NCc1ccco1)c1c[nH]c2ccc(S(=O)(=O)Nc3ccc(F)cc3F)cc2c1=O,inactive
13,CN(C)c1ccc(C(CNC(=O)c2ccccc2F)N2CCc3ccccc32)cc1 (stereo not drawn),"inconclusive: 31.6 µM [inhibitor, partial curve]"
14,CC1Cc2ccccc2N1S(=O)(=O)c1ccccc1F (stereo not drawn),"inconclusive: 56.2 µM [inhibitor, partial curve, poor fit]"
15,CCOc1ccc(C(=O)Nc2sc(C)c(CC)c2C#N)cc1,inactive
16,Cc1ccc(OCC(=O)N(Cc2ccco2)Cc2ccco2)cc1,"inconclusive: 79.4 µM [inhibitor, partial curve, poor fit]"
17,Cc1c2cnn(-c3ccccc3)c(=O)c2c(C)n1CC(=O)N1CCN(c2ccc(F)cc2)CC1,inactive
18,COc1ccc(-c2cc(C(F)(F)F)nc(NCc3ccccc3)n2)cc1,"inconclusive: 22.4 µM [inhibitor, full curve, poor fit]"
19,Cc1ccc(C(=O)c2cn(Cc3ccccc3F)c3cc4c(cc3c2=O)OCO4)cc1,active: 39.8 µM
20,COC(=O)c1c(NC(=O)COc2ccccc2Cl)sc2c1CCC(C(C)(C)C)C2 (stereo not drawn),"inconclusive: 25.1 µM [inhibitor, partial curve, poor fit]"
21,Cc1cccc(-n2ncc(C(=O)NCc3ccco3)c2C2CCN(C(=O)OC(C)(C)C)CC2)c1,"inconclusive: 56.2 µM [inhibitor, partial curve, poor fit]"

row,SMILES,Potency
1,Cc1occc1-c1nc(-c2ccccc2)no1,inactive
2,Cc1ccc(N2CCN(C(=O)c3c(C)oc4nc(C)nc(N5CCCC5)c34)CC2)c(C)c1,"inconclusive: 50.1 µM [inhibitor, partial curve, poor fit]"
3,CCCn1c(C)cc(C(=O)COc2ncnc3ccccc23)c1C,inactive
4,Cc1cc(C)cc(CC(CC(=O)O)C(=O)Nc2cccc(C(F)(F)F)c2)c1 (stereo not drawn),inactive
5,Cc1ccc(NC(=O)CCc2ncc(-c3c(F)cccc3F)o2)c(O)c1,inactive
6,CN(C(=O)c1oc(=O)c2ccccc2c1-c1ccccc1)c1cccc(Cl)c1,"inconclusive: 44.7 µM [inhibitor, partial curve, poor fit]"
7,CCN1CCN(CCCNC(=O)c2ccc3c(c2)sc2nc(-c4ccc(C)cc4)cn23)CC1,"inconclusive: 89.1 µM [inhibitor, partial curve, poor fit]"
8,CCOc1ccc(NC(=O)c2noc3c2CSc2ccccc2-3)cc1,inactive
9,Cc1csc2nc(-c3cccc(NC(=O)c4ccccc4F)c3)cn12,"inconclusive: 79.4 µM [inhibitor, partial curve, poor fit]"
10,COc1cccc(CNC(=O)CC(c2ccc(C)cc2)N2Cc3ccccc3C2=O)c1 (stereo not drawn),"inconclusive: 79.4 µM [inhibitor, partial curve, poor fit]"
11,Cc1ccc(CNC(=O)c2cnn(-c3ccc(F)cc3F)c2C2CCN(C(=O)OC(C)(C)C)CC2)cc1,"inconclusive: 25.1 µM [inhibitor, full curve, poor fit]"
12,Cc1cccc(C(=O)Nc2sc3c(c2C(=O)O)CCCC3)c1,"inconclusive: 79.4 µM [inhibitor, partial curve, poor fit]"
13,COc1ccc(OC)c(CNC(=O)CCC(=O)N2Cc3ccccc3Oc3ncccc32)c1,"inconclusive: 31.6 µM [inhibitor, single point]"
14,Cc1ccccc1CNC(=O)Cn1cc2c(n1)-c1c(oc(C(=O)N3CCCC3)c1C)CC2,"inconclusive: 79.4 µM [inhibitor, partial curve, poor fit]"
15,CCOc1ccc(NC(=O)Cn2c(=O)n(Cc3ccccc3)c(=O)c3c4c(sc32)CN(C(C)=O)CC4)cc1,"inconclusive: 50.1 µM [inhibitor, partial curve, poor fit]"
16,CC(C)(C)c1ccc(S(=O)(=O)N2CCC(c3ccncc3)CC2)cc1,"inconclusive: 39.8 µM [inhibitor, partial curve, poor fit]"
17,CC(NC(=O)CSCc1cccs1)C1CCCO1 (stereo not drawn),inactive
18,O=C1N(Cc2cccc(F)c2)CCCN1c1ccc(C(=O)N2CCc3ccccc32)cc1,"inconclusive: 50.1 µM [inhibitor, partial curve, poor fit]"
19,COC(=O)c1c(NC(=O)c2c(OC)cccc2OC)sc2c1CCCC2,"inconclusive: 39.8 µM [inhibitor, partial curve, poor fit]"
20,Cc1ccc2c(c1)-c1onc(C(=O)N3CCN(c4cccc(C)c4C)CC3)c1CO2,"inconclusive: 100 µM [inhibitor, single point]"
21,Cc1nn(-c2ccccc2)c2c1cc1c(=O)[nH]c(=O)nc-1n2-c1cccc(C(F)(F)F)c1,"inconclusive: 7.94 µM [inhibitor, partial curve, poor fit]"
